# Values joined by “and” are separate entries in the source; they are usually repeats but may differ in a detail not shown here. Equal values may be shown once. Where a name gives a salt, the structure may show the parent alone. In all, about 5,800 compounds went through this assay and about 620 (11%) showed activity.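 How the source made its calls: active = score above a cut-off or among the top three wells of a plate; in these data no inactive exceeds 0.85.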 This is a selection; strong and weak results do not stand in their true shares.
# Tested on: primary human hepatic stellate cells (donor 1)
# Assay: scaled lipid accumulation score (0 = DMSO-like, 1 = nortriptyline-like); higher = stronger HSC inactivation (lipid re-accumulation), active = hit call of the paper
# Settings: 48 h
# Procedure: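 Primary lipid accumulation screen in primary human hepatic stellate cell myofibroblasts (donor 1, passage 8) in 384-well plates. 100 nL of library compound was pin-transferred into 30 µL medium in duplicate, and cells were treated for 48 h. The 'Scaled' score combines distance from plate baseline, toxicity and reproducibility penalties, and is normalised to nortriptyline (positive) and DMSO (negative) controls on each plate. A hit is defined as scaled >0.85 or among the top 3 wells per plate.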
# [1] = library stock concentration: 80 uM
# [2] = library stock concentration: 400 uM
# [3] = library stock concentration: 2 mM
# [4] = library stock concentration: 3.33 mM
# [5] = library stock concentration: 10 mM
# [6] = library stock concentration: 1 mM
smiles,measurement,setting,value
CN(C)CC[C@H](CSc1ccccc1)Nc1ccc(S(=O)(=O)NC(=O)c2ccc(N3CCN(Cc4ccccc4-c4ccc(Cl)cc4)CC3)cc2)cc1[N+](=O)[O-],scaled lipid accumulation score,[1],inactive: ≤ -0.009
same,scaled lipid accumulation score,[2],inactive: ≤ -0.009 and inactive: ≤ -0.005
same,scaled lipid accumulation score,[3],inactive: 0.097 and inactive: 0.066
same,scaled lipid accumulation score,[4],inactive: ≤ 0
same,scaled lipid accumulation score,[5],inactive: ≤ 0 and inactive: 0.132 and inactive: 0.039
C[C@H]1COC2=C1C(=O)C(=O)c1c2ccc2c1CCCC2(C)C [Cryptotanshinone],scaled lipid accumulation score,[4],inactive: ≤ 0
same,scaled lipid accumulation score,[5],inactive: 0.306
NC(=O)Cc1cccc(C(=O)c2ccccc2)c1N [Nepafenac],scaled lipid accumulation score,[4],inactive: ≤ 0
same,scaled lipid accumulation score,[5],inactive: 0.098
CC(=O)SCC[N+](C)(C)C [Acetylthiocholine chloride],scaled lipid accumulation score,[5],inactive: ≤ 0
CCCCC1=NC2(CCCC2)C(=O)N1Cc1ccc(-c2ccccc2-c2nnn[nH]2)cc1 [Irbesartan],scaled lipid accumulation score,library stock concentration: 4.7 mM,inactive: ≤ 0
same,scaled lipid accumulation score,[5],inactive: ≤ -0.027
CC(C)COC(=O)OCN1C(=O)CN(CCN2CC(=O)N(COC(=O)OCC(C)C)C(=O)C2)CC1=O [Sobuzoxane],scaled lipid accumulation score,[5],inactive: ≤ 0
Nc1ccccc1NC(=O)c1ccc(CNC(=O)OCc2cccnc2)cc1 [Entinostat (MS-275)],scaled lipid accumulation score,[4],inactive: 0.152
same,scaled lipid accumulation score,[5],inactive: 0.418
Nc1ccccc1NC(=O)c1ccc(CNC(=O)OCc2cccnc2)cc1,scaled lipid accumulation score,[1],inactive: ≤ 0
same,scaled lipid accumulation score,[2],inactive: ≤ 0
same,scaled lipid accumulation score,[6],inactive: 0.014
same,scaled lipid accumulation score,[3],inactive: ≤ 0
same,scaled lipid accumulation score,[5],inactive: 0.628
O=C1NCN(c2ccccc2)C12CCN(CCCC(c1ccc(F)cc1)c1ccc(F)cc1)CC2 [Fluspirilen],scaled lipid accumulation score,,inactive: ≤ 0
CC(C)(C)C(=O)OCOC(=O)[C@@H]1N2C(=O)[C@@H](NC(=O)[C@H](N)c3ccccc3)[C@H]2SC1(C)C [Pivampicillin],scaled lipid accumulation score,,inactive: ≤ 0
CC1(C)Oc2ccc(C#N)cc2[C@H](N2CCCC2=O)[C@H]1O [Cromakalim],scaled lipid accumulation score,[5],inactive: 0.064
CCCCOc1c(C(=O)c2c(F)cc(C)cc2F)c[nH]c2nncc1-2,scaled lipid accumulation score,[4],inactive: 0.505
same,scaled lipid accumulation score,[5],inactive: 0.263
O=C(c1ccc(C=Cc2n[nH]c3ccccc23)cc1)N1CCNCC1,scaled lipid accumulation score,[5],active: 1.27
O=[N+]([O-])c1cccc2c(Br)[nH]nc12 [3-Bromo-7-nitroindazole],scaled lipid accumulation score,[5],inactive: 0.559 and inactive: 0.021
O=[N+]([O-])c1cccc2c(Br)[nH]nc12 [3-bromo-7-Nitroindazole],scaled lipid accumulation score,[6],inactive: ≤ 0
CN(C)C(=O)COC(=O)Cc1ccc(OC(=O)c2ccc(NC(=N)N)cc2)cc1 [Camostat Mesilate],scaled lipid accumulation score,[4],inactive: 0.052
same,scaled lipid accumulation score,[5],inactive: ≤ 0
COC(=O)[C@H]1[C@H]2C[C@@H]3c4[nH]c5cc(OC)ccc5c4CCN3C[C@H]2C[C@@H](OC(=O)c2cc(OC)c(OC)c(OC)c2)[C@@H]1OC [Reserpine],scaled lipid accumulation score,[5],active: 1.18
COc1ccc(Cc2cnc(N)nc2N)cc1OC,scaled lipid accumulation score,[5],inactive: ≤ 0
CC(Cc1ccccc1)(NC(=O)CN)c1ccccc1 (configuration not stated) [Remacemide hydrochloride],scaled lipid accumulation score,[5],inactive: 0.479
COc1cc(C)c(Sc2cnc(NC(=O)c3ccc(CNC(C)C(C)C)cc3)s2)cc1C(=O)N1CCN(C(C)=O)CC1 (configuration not stated),scaled lipid accumulation score,[1],inactive: 0.006
same,scaled lipid accumulation score,[2],inactive: ≤ 0
same,scaled lipid accumulation score,[3],inactive: 0.398
CC(C)[C@H](O)C(=O)O [(S)-(+)-2-hydroxy-3-Methylbutyric Acid],scaled lipid accumulation score,[6],inactive: ≤ 0
O=C(O)CCC(=O)N1CCC[C@H]1C(=O)O [N-Succinyl-L-proline],scaled lipid accumulation score,[5],inactive: ≤ 0
CNCC[C@H](Oc1cccc2ccccc12)c1cccs1,scaled lipid accumulation score,[5],active: 0.953
CCCCCCCCCCCCC/C=C/[C@@H](O)[C@H](CO)NC(=O)CCCCCCCCCCCCCCC [C16 Ceramide],scaled lipid accumulation score,[6],inactive: ≤ -0.021
C[C@@H](Oc1cc(-n2cnc3ccc(CN4CCN(C)CC4)cc32)sc1C(N)=O)c1ccccc1C(F)(F)F,scaled lipid accumulation score,[1],inactive: ≤ 0
same,scaled lipid accumulation score,[2],inactive: 0.039
same,scaled lipid accumulation score,[5],inactive: 0.788
CC1CCC(C(C)C)C(O)C1 (stereo not drawn) [Menthol(-)],scaled lipid accumulation score,[5],inactive: ≤ -0.027
Br.CN(C)CCCC1(c2ccc(F)cc2)OCc2cc(C#N)ccc21 (configuration not stated) [Citalopram hydrobromide],scaled lipid accumulation score,[5],active: 0.952
CO[C@@]1(NC(=O)Cc2cccs2)C(=O)N2C(C(=O)O)=C(COC(N)=O)CS[C@@H]21 [Cefoxitin sodium salt],scaled lipid accumulation score,,inactive: ≤ 0
CO[C@@]1(NC(=O)Cc2cccs2)C(=O)N2C(C(=O)O)=C(COC(N)=O)CS[C@@H]21 [Cefoxitin sodium],scaled lipid accumulation score,library stock concentration: 4.5 mM,inactive: ≤ 0
same,scaled lipid accumulation score,[5],inactive: ≤ 0
N#CC(=Cc1ccc(O)c(O)c1)C(=O)NCc1ccccc1 [AG-490 (Tyrphostin B42)],scaled lipid accumulation score,[4],inactive: ≤ 0
same,scaled lipid accumulation score,[5],inactive: ≤ 0
CCCCCCCCCCCCCCCC(=O)OCC [Palmitic Acid ethyl ester],scaled lipid accumulation score,[6],inactive: ≤ 0
Cc1cncc(CN2CCC(=C3c4ccc(Cl)cc4CCc4cccnc43)CC2)c1.O=C(O)C=CC(=O)O [Rupatadine Fumarate],scaled lipid accumulation score,[5],active: 0.862
CC1(COc2ccc3c(c2)ncn3-c2ccc3cccc(N4CCC(N)CC4)c3n2)COC1,scaled lipid accumulation score,[5],inactive: 0.404
COc1ccccc1-c1cc(Nc2cccc(CS(N)(=O)=O)c2)ncn1,scaled lipid accumulation score,[4],inactive: 0.066
same,scaled lipid accumulation score,[5],inactive: 0.266
O=C(O)CCC/C=C\C[C@@H]1[C@@H](/C=C/C(=O)COc2cccc(C(F)(F)F)c2)[C@H](O)C[C@@H]1O [15-keto Fluprostenol],scaled lipid accumulation score,[6],inactive: ≤ 0
NC[C@H]1c(c2C[C@@H]([C@]3(C4)CC(CC45)CC(C5)C3)O1)ccc(O)c2O.Cl,scaled lipid accumulation score,[5],active: 1.19
NS(=O)(=O)c1cccc2c1c([N+](=O)[O-])cc1nc(O)c(O)nc12 [NBQX disodium],scaled lipid accumulation score,[5],inactive: ≤ -0.055
NS(=O)(=O)c1cccc2c1c([N+](=O)[O-])cc1nc(O)c(O)nc12,scaled lipid accumulation score,[5],inactive: ≤ 0
NS(=O)(=O)c1cccc2c1c([N+](=O)[O-])cc1nc(O)c(O)nc12 [NBQX disodium salt],scaled lipid accumulation score,[5],inactive: ≤ -0.006
N#CC(=C(/N)Sc1ccccc1N)/C(C#N)=C(/N)Sc1ccccc1N,scaled lipid accumulation score,[5],inactive: ≤ 0
same,scaled lipid accumulation score,library stock concentration: 13.1 mM,inactive: 0.018
COc1cc2c(cc1OC)C(=O)C(CC1CCN(Cc3ccccc3)CC1)C2 (configuration not stated) [Donepezil hydrochloride],scaled lipid accumulation score,library stock concentration: 4.8 mM,inactive: 0.193
COc1cc2c(cc1OC)C(=O)C(CC1CCN(Cc3ccccc3)CC1)C2 (configuration not stated) [Donepezil],scaled lipid accumulation score,[5],inactive: ≤ 0
NC(N)=NCc1cccc(I)c1 [m-Iodobenzylguanidine hemisulfate],scaled lipid accumulation score,[5],inactive: ≤ -0.051
CC(CCCO)C1CCC2C3C(O)CC4CC(=O)CCC4(C)C3CC(O)C12C (configuration not stated) [3-keto Petromyzonol],scaled lipid accumulation score,[6],inactive: ≤ 0
COCC1=C(C(=O)OC(C)OC(=O)OC(C)C)N2C(=O)[C@@H](NC(=O)/C(=N\OC)c3csc(N)n3)[C@H]2SC1 (some centres not stated),scaled lipid accumulation score,[5],inactive: ≤ 0
COCC1=C(C(=O)OC(C)OC(=O)OC(C)C)N2C(=O)[C@@H](NC(=O)/C(=N\OC)c3csc(N)n3)[C@H]2SC1 (some centres not stated) [Cefpodoxime proxetil],scaled lipid accumulation score,library stock concentration: 3.6 mM,inactive: ≤ 0
CCN(CC)CCOC(=O)C(c1ccccc1)C1CCCCC1 (configuration not stated) [Drofenine hydrochloride],scaled lipid accumulation score,,inactive: 0.317
same,scaled lipid accumulation score,[5],inactive: 0.335
COc1ccccc1OCCNCC(O)COc1cccc2[nH]c3ccccc3c12 (configuration not stated) [Carvedilol],scaled lipid accumulation score,[5],active: 1.57
COc1cc(Cc2cnc(N)nc2N)cc(OC)c1OC [Trimethoprim],scaled lipid accumulation score,,inactive: ≤ 0
same,scaled lipid accumulation score,[4],inactive: ≤ 0
same,scaled lipid accumulation score,library stock concentration: 6.9 mM,inactive: ≤ 0
same,scaled lipid accumulation score,[5],inactive: 0.058 and inactive: ≤ 0
NC(=O)C(=O)O [Sodium Oxamate],scaled lipid accumulation score,[5],inactive: ≤ -0.055
COc1cc2c(cc1OC)CN(CCc1ccc(NC(=O)c3cc(OC)c(OC)cc3NC(=O)c3cnc4ccccc4c3)cc1)CC2 [Tariquidar],scaled lipid accumulation score,[4],inactive: 0.008
same,scaled lipid accumulation score,[5],inactive: 0.303
NC1(Cc2ccc(Cl)cc2)CCN(c2ncnc3[nH]ccc23)CC1,scaled lipid accumulation score,[5],active: 1.09
"FC(F)(F)c1cc(COC2CCCNC2c2ccccc2)cc(C(F)(F)F)c1 [L-733,060 hydrochloride]",scaled lipid accumulation score,[5],inactive: 0.518
CS(=O)(=O)c1ccc(C2=C(c3ccccc3)C(=O)OC2)cc1 [Rofecoxib],scaled lipid accumulation score,[4],inactive: ≤ 0
same,scaled lipid accumulation score,library stock concentration: 6.4 mM,inactive: ≤ -0.006 and inactive: ≤ 0
same,scaled lipid accumulation score,[5],inactive: 0.033 and inactive: ≤ -0.027
CS(=O)(=O)c1ccc(C2=C(c3ccccc3)C(=O)OC2)cc1,scaled lipid accumulation score,[5],inactive: ≤ 0
Cn1c(=O)c2[nH]cnc2n(C)c1=O [Aminophylline ethylenediamine],scaled lipid accumulation score,[5],inactive: ≤ 0
Cn1c(=O)c2[nH]cnc2n(C)c1=O [Aminophylline],scaled lipid accumulation score,,inactive: ≤ 0
same,scaled lipid accumulation score,[4],inactive: ≤ 0
same,scaled lipid accumulation score,[5],inactive: 0.066
Cn1c(=O)c2[nH]cnc2n(C)c1=O [Oxtriphylline],scaled lipid accumulation score,library stock concentration: 7.1 mM,inactive: ≤ 0
CC(=O)c1cc([N+](=O)[O-])c(Sc2cccc(Cl)c2Cl)s1,scaled lipid accumulation score,[4],inactive: ≤ -0.009
same,scaled lipid accumulation score,[5],inactive: 0.252
CCCCCC=CC=CC(O)CCCCCCCC(=O)OCC(COC(=O)CCCCCCCC=CC=CC(O)CCCCC)OC(=O)CCCCCCCC=CC=CC(O)CCCCC (configuration not stated) [Hydroxy Linoleins],scaled lipid accumulation score,[6],inactive: 0.061
C#C[C@]1(O)CC[C@H]2[C@@H]3CCc4cc(OC5CCCC5)ccc4[C@H]3CC[C@@]21C,scaled lipid accumulation score,[5],inactive: 0.426
Cc1ccnc2c1NC(=O)c1cccnc1N2C1CC1 [Viramune],scaled lipid accumulation score,[5],inactive: ≤ 0
Cc1ccnc2c1NC(=O)c1cccnc1N2C1CC1,scaled lipid accumulation score,[5],inactive: 0.213
Cc1ccnc2c1NC(=O)c1cccnc1N2C1CC1 [Nevirapine],scaled lipid accumulation score,[4],inactive: 0.081
same,scaled lipid accumulation score,[5],inactive: ≤ 0
